Experimental data from the supplement of paper PMC8728848.
Some of the results follow.

Key:
Test in all cases: glycan array binding signal (z-score within array); higher = stronger binding
Details in all cases: glycan notation: IUPAC condensed, linker removed
Fuc(a1-2)Gal = target: Fuc(a1-2)Gal
Procedure, shortened: (§1)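 The Consortium for Functional Glycomics database supplied 3228 glycan arrays, of which those lacking an available protein sequence were dropped. The binding signal, a within-array Z-score, was averaged across arrays of the same protein sequence and across linkers. Negative scores can be read as non-binding.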

Fuc(a1-2)Gal(b1-3)GalNAc = target: Fuc(a1-2)Gal(b1-3)GalNAc
Procedure, shortened: as §1

[1] = target: Fuc(a1-2)Gal(b1-3)GalNAc(b1-3)Gal
Procedure, shortened: as §1

[2] = target: Fuc(a1-2)Gal(b1-3)GalNAc(b1-3)Gal(a1-4)Gal(b1-4)Glc
Procedure, shortened: as §1

[3] = target: Fuc(a1-2)Gal(b1-3)GalNAc(b1-3)Gal(b1-4)Glc
Procedure, shortened: as §1

[4] = target: Fuc(a1-2)Gal(b1-3)GalNAc(b1-4)[Neu5Ac(a2-3)]Gal(b1-4)Glc
Procedure, shortened: as §1

[5] = target: Fuc(a1-2)Gal(b1-3)[Fuc(a1-4)]GlcNAc
Procedure, shortened: as §1

Fuc(a1-2)Gal(b1-4)Glc = target: Fuc(a1-2)Gal(b1-4)Glc
Procedure, shortened: as §1

Fuc(a1-2)Gal(b1-4)Glc6S = target: Fuc(a1-2)Gal(b1-4)Glc6S
Procedure, shortened: as §1

Fuc(a1-2)Gal(b1-4)GlcNAc = target: Fuc(a1-2)Gal(b1-4)GlcNAc
Procedure, shortened: as §1

[6] = target: Fuc(a1-2)Gal(b1-4)GlcNAc(b1-3)Gal(b1-4)GlcNAc
Procedure, shortened: as §1

[7] = target: Fuc(a1-2)Gal(b1-4)GlcNAc(b1-3)Gal(b1-4)GlcNAc(b1-3)Gal(b1-4)GlcNAc
Procedure, shortened: as §1

[8] = target: Fuc(a1-2)Gal(b1-4)GlcNAc6S
Procedure, shortened: as §1

[9] = target: Fuc(a1-2)Gal(b1-4)[Fuc(a1-3)]GalNAc(b1-3)Gal(b1-4)[Fuc(a1-3)]GlcNAc
Procedure, shortened: as §1

[10] = target: Fuc(a1-2)Gal(b1-4)[Fuc(a1-3)]GalNAc(b1-3)Gal(b1-4)[Fuc(a1-3)]GlcNAc(b1-3)Gal(b1-4)[Fuc(a1-3)]GalNAc
Procedure, shortened: as §1

[11] = target: Fuc(a1-2)Gal(b1-4)[Fuc(a1-3)]GlcNAc
Procedure, shortened: as §1

Fuc(a1-2)Gal6S(b1-4)Glc = target: Fuc(a1-2)Gal6S(b1-4)Glc
Procedure, shortened: as §1

[12] = target: Fuc(a1-2)Gal6S(b1-4)Glc6S
Procedure, shortened: as §1

[13] = target: Fuc(a1-2)Gal6S(b1-4)GlcNAc
Procedure, shortened: as §1

Fuc(a1-2)GlcNAc = target: Fuc(a1-2)GlcNAc
Procedure, shortened: as §1

Fuc(a1-2)[Gal(a1-3)]Gal = target: Fuc(a1-2)[Gal(a1-3)]Gal
Procedure, shortened: as §1

[14] = target: Fuc(a1-2)[Gal(a1-3)]Gal(b1-3)GlcNAc
Procedure, shortened: as §1

[15] = target: Fuc(a1-2)[Gal(a1-3)]Gal(b1-4)Glc
Procedure, shortened: as §1

[16] = target: Fuc(a1-2)[Gal(a1-3)]Gal(b1-4)GlcNAc
Procedure, shortened: as §1

[17] = target: Fuc(a1-2)[Gal(a1-3)]Gal(b1-4)[Fuc(a1-3)]GlcNAc
Procedure, shortened: as §1

[18] = target: Fuc(a1-2)[Gal(a1-4)]Gal(b1-4)GalNAc
Procedure, shortened: as §1

[19] = target: Fuc(a1-2)[GalNAc(a1-3)]Gal
Procedure, shortened: as §1

[20] = target: Fuc(a1-2)[GalNAc(a1-3)]Gal(b1-3)GlcNAc
Procedure, shortened: as §1

[21] = target: Fuc(a1-2)[GalNAc(a1-3)]Gal(b1-4)Glc
Procedure, shortened: as §1

[22] = target: Fuc(a1-2)[GalNAc(a1-3)]Gal(b1-4)GlcNAc
Procedure, shortened: as §1

B1: PEB3 Cj0289c (Campylobacter jejuni), Q9PIK7 (protein)
chain: MDVNLYGPGGPHTALKDIANKYSEKTGVKVNVNFGPQATWFEKAKKDADILFGASDQSALAIASDFGKDFNVSKIKPLYFREAIILTQKGNPLKIKGLKDLANKKVRIVVPEGAGKSNTSGTGVWEDMIGRTQDIKTIQNFRNNIVAFVPNSGSARKLFAQDQADAWITWIDWSKSNPDIGTAVAIEKDLVVYRTFNVIAKEGASKETQDFIAYLSSKEAKEIFKKYGWRE
Q: What does the source list for B1?
A: glycan array binding signal (z-score) (Fuc(a1-2)Gal): 0.074; glycan array binding signal (z-score) (Fuc(a1-2)Gal(b1-3)GalNAc): -0.259; glycan array binding signal (z-score) [1]: 1.6; glycan array binding signal (z-score) [2]: -0.183; glycan array binding signal (z-score) [3]: -0.406; glycan array binding signal (z-score) [4]: -0.151; glycan array binding signal (z-score) [5]: -0.194; glycan array binding signal (z-score) (Fuc(a1-2)Gal(b1-4)Glc): -0.082; glycan array binding signal (z-score) (Fuc(a1-2)Gal(b1-4)Glc6S): -0.362; glycan array binding signal (z-score) (Fuc(a1-2)Gal(b1-4)GlcNAc): -0.301; glycan array binding signal (z-score) [6]: -0.393; glycan array binding signal (z-score) [7]: -0.33; glycan array binding signal (z-score) [8]: -0.238; glycan array binding signal (z-score) [9]: -0.127; glycan array binding signal (z-score) [10]: -0.245; glycan array binding signal (z-score) [11]: -0.263; glycan array binding signal (z-score) (Fuc(a1-2)Gal6S(b1-4)Glc): -0.291; glycan array binding signal (z-score) [12]: -0.08; glycan array binding signal (z-score) [13]: -0.378; glycan array binding signal (z-score) (Fuc(a1-2)GlcNAc): 0.072; glycan array binding signal (z-score) (Fuc(a1-2)[Gal(a1-3)]Gal): -0.183; glycan array binding signal (z-score) [14]: -0.259; glycan array binding signal (z-score) [15]: -0.313; glycan array binding signal (z-score) [16]: -0.126; glycan array binding signal (z-score) [17]: -0.22; glycan array binding signal (z-score) [18]: -0.405; glycan array binding signal (z-score) [19]: -0.154; glycan array binding signal (z-score) [20]: -0.222; glycan array binding signal (z-score) [21]: -0.137; glycan array binding signal (z-score) [22]: -0.298
